Out of some 52,000 compounds screened, about 1,700 (3.3%) were called active. No stated cut-off is given here; in the data, active means survival mostly below about 52% (no sharp cut-off); inactive means mostly above about 56%. This is one part of the list.
What follows are compounds tested on Wild type (assay: S. aureus survival, RN4220 and DeltatarO strains – OD600, teichoic acid synthesis inhibitors, primary screen (AID 463173)). Details: S. aureus RN4220 wild type/DeltatarO growth, OD600, 18 h, active compounds read low, screened at 18.75 µg/mL (by protocol).

SMILES | survival
COc1ccc(-c2nc3c(c(SCc4cc(C)ccc4C)n2)Cc2c(CO)cnc(C)c2O3)cc1 | inactive: 85%
COc1ccc(N2CCN(C(=O)c3nn(C)c4c3CS(=O)(=O)c3ccccc3-4)CC2)cc1 | inactive: 85%
Cc1[nH]c(=O)[nH]c(=O)c1Oc1ccccc1 | inactive: 109%
CCC(=O)OCc1cnc(C)c2oc(=O)c(C(=O)Nc3ccc(CC)cc3)cc12 | inactive: 134%
CC(NC(=O)C1CCN(C(=O)N2CCOc3ccc(Cl)cc32)CC1)c1ccccc1 (centres undefined) | inactive: 80%
O=C(CCSCc1ccc(Cl)cc1)N1CCN(c2ccccc2F)CC1 | inactive: 90%
COc1ccc(CCNC(=O)CS(=O)Cc2nc(-c3ccc(C)cc3)oc2C)cc1OC (centres undefined) | inactive: 78%
NC(=O)c1cc(S(=O)(=O)NCc2ccc(Br)cc2)cs1 | inactive: 73%
CN1C(=O)N(C)C2(CC1(C)C)CC(C)(C)N(C)C(=O)N2C | inactive: 102%
CCCN1C(=O)c2ccccc2NC1c1cc(OC)c(OC)c(OC)c1 (centres undefined) | inactive: 101%
COc1ccccc1Nc1nn2c(=O)c3ccc(C(=O)Nc4ccc(F)cc4)cc3nc2s1 | inactive: 88%
CC(=O)N1c2ccccc2NC(=O)C1CC(=O)Nc1cccc(C)c1 (centres undefined) | inactive: 114%
CCCN(CCC)CCNC(=O)Cn1ncc2c([nH]c3ccc(C)cc32)c1=O | inactive: 76%
CCOc1ccc2oc(=O)cc(CN3CCN(C(=O)c4cccc(F)c4)CC3)c2c1 | inactive: 56%
CCc1cccc(-n2c(=O)c3cccnc3n2CC(=O)NCc2ccccc2Cl)c1 | inactive: 66%
CCOC(=O)c1[nH]c(C)c(CCC(=O)NCc2ccc(C)cc2)c1C | inactive: 70%
CCOC(=O)c1ccc(NC(=O)CCc2c(C)n(CC)c3cc(-c4ccccc4OC)nn3c2=O)cc1 | inactive: 75%
CCOCCCNC(=O)c1cc2c(=O)n3ccccc3nc2s1 | inactive: 79%
COc1ccc(N2CCN(C(=O)c3ccc(NC(=O)c4nsc5ccccc45)cc3)CC2)cc1 | inactive: 56%
O=C(/C=C\c1ccc2c(c1)OCO2)NC1CC(=O)N(c2ccc(F)cc2)C1 (centres undefined) | inactive: 69%
Cc1ccc(C)c(N2CCN(C(=O)c3cc4cc5ccc(C)cc5nc4s3)CC2)c1 | inactive: 92%
CC(C)(C)c1ccc(C(=O)Nc2cc(-c3ccccc3)nn2-c2ccccc2)cc1 | inactive: 68%
CC1CCN(S(=O)(=O)c2cc(C(=O)NCCc3ccccc3)n(C)c2)CC1 | inactive: 113%

SMILES | survival
Cc1ccc(CNc2nc3c(S(=O)(=O)c4ccc(C)c(C)c4)nnn3c3ccc(Cl)cc23)cc1 | inactive: 86%
COc1cc(-c2nc3cc(Cl)ccc3o2)cc(OC)c1OC | inactive: 109%
Cc1ccc(CNC(=O)CCn2ccc3cc(S(=O)(=O)N4CCCC4)ccc32)cc1 | inactive: 74%
O=C(CN1CCN(c2ccc(Cl)cc2)CC1)Nc1ccc(Cl)c(C(F)(F)F)c1 | inactive: 87%
Cc1ccc(CSc2oc(-c3ccco3)nc2S(=O)(=O)c2ccc(Br)cc2)cc1 | inactive: 76%
O=C(O)C1CC=CCC1C(=O)N(Cc1ccccc1)c1ccccc1 (centres undefined) | inactive: 104%
CC1CCN(C(=O)CSc2nc3c([nH]c4ccccc43)c(=O)n2-c2ccccc2)CC1 | inactive: 83%
COc1ccccc1NC(=O)CSc1nnc(-c2nonc2NC(C)=O)n1-c1ccccc1 | inactive: 84%
CCOc1ccc(-n2c(=O)c3c4c(sc3n(Cc3cc(=O)n5cc(Cl)ccc5n3)c2=O)CCC4)cc1 | inactive: 83%
CCc1ccc(NC(=O)Cn2c(=O)n(Cc3nc(C)no3)c(=O)c3cc4c(cc32)OCO4)cc1 | inactive: 105%
CN1CCN(C(=O)c2ccc(C(C)(C)C)cc2)CC1 | inactive: 108%
Cc1ccc(CN2CCC(CNC(=O)c3cnn(-c4ccccc4)c3C3CCN(C(=O)OC(C)(C)C)CC3)CC2)cc1 | inactive: 73%
CCc1cc(C(=O)OC)c(NC(=O)CC2SC(=NC)N(C)C2=O)s1 (centres undefined) | inactive: 110%
COCCn1c(=O)[nH]c2cc(C(=O)N3CCN(c4ccc(Cl)cc4)CC3)ccc2c1=O | inactive: 66%
Cc1ccc2nc(NC(=O)c3nc(SCc4ccccc4F)ncc3Cl)sc2c1 | inactive: 85%
Cc1ccc2c(c1)C(=O)C(=O)N2Cc1ccc(OCCC(C)C)cc1 | inactive: 79%
COc1ccc(NC(=O)c2oc3ccc(S(=O)(=O)N4CCCCC4)cc3c2C)cc1Cl | inactive: 73%
COc1ccc(NC(=O)c2cc(C(C)=O)n3ccccc23)cc1 | inactive: 77%
COc1cc2c(=O)n(Cc3ccco3)c(=O)n(CC(=O)Nc3ccc(F)cc3)c2cc1OC | inactive: 68%
CCOc1cc2[nH]c(=O)n(Cc3ccc(C(=O)N4CCN(c5ccccc5)CC4)cc3)c(=O)c2cc1OCC | inactive: 120%
Cc1cnc(NC(=O)CSc2nc3sc4c(c3c(=O)n2C)CCCC4)s1 | inactive: 114%
CSc1ncc(Cl)c(C(=O)Nc2cc(C(F)(F)F)ccc2Cl)n1 | inactive: 88%
O=C(O)c1ccc(NCc2nc3ccccc3n2CCOc2ccccc2Cl)cc1 | inactive: 88%

SMILES | survival
O=C(CSc1nc(=O)n(Cc2cccnc2)c2c1CCC2)Nc1cccc(Cl)c1 | inactive: 84%
Cc1nc(-c2ccc(Cl)cc2)sc1CCNC(=O)C(=O)Nc1ccc2c(c1)OCCO2 | inactive: 66%
COc1ccc(N(C)C(=O)c2nn(-c3ccc(C)cc3)c(=O)n(C)c2=O)c(OC)c1 | inactive: 84%
Cc1cc(C)cc(NC(=O)N2CCC(C(N)=O)(N3CCCCC3)CC2)c1 | inactive: 104%
CCOC(=O)N1CCC(NC(=O)c2cnn(-c3ccc(F)cc3)c2-n2cccc2)CC1 | inactive: 74%
C=CCc1c(C)[nH]c2c(OC)cccc2c1=S | inactive: 86%
Cc1ccc(-c2nn(-c3ccc(F)cc3F)c3c2cnc2ccc(F)cc23)cc1 | inactive: 65%
CCN(CC)c1cc(C)c2cc(NC(=O)/C=C/c3ccccc3Cl)ccc2n1 | inactive: 76%
N#CCC(=O)N/N=C/c1ccc(OC2CSC2)cc1 | inactive: 113%
COc1ccc(N2CC(NC(=O)C(=O)c3c[nH]c4ccccc34)CC2=O)cc1 (centres undefined) | inactive: 73%
COc1ccc(CNC(=O)CC(C)n2nc(C)cc2C)cc1 (centres undefined) | inactive: 88%
O=C(CCSCc1cccc(Cl)c1)NCc1ccccc1Cl | inactive: 47%
CC(C)Oc1ccc(C(=O)N2CCN(c3nc4c(F)cc(F)cc4s3)CC2)cc1 | inactive: 120%
O=c1c(N2CCN(c3ccccc3)CC2)csc2ccc(Cl)cc12 | inactive: 68%
O=C(CSc1ncc2c(n1)-c1cc(Cl)ccc1N(Cc1ccccc1)S2(=O)=O)Nc1ccc(F)cc1F | inactive: 82%
CCOCCn1ccc2c(OCC(=O)NCc3ccc(F)cc3)cccc2c1=O | inactive: 79%
CC1CCCN(c2ncnc3c2cnn3-c2ccc(F)cc2)C1 (centres undefined) | inactive: 55%
CCN1c2ccccc2-n2cccc2C12CCN(C(=O)Nc1ccccc1Br)CC2 | inactive: 81%
CCCCn1cc(S(=O)(=O)c2ccccc2)c(=O)c2cc(F)c(N3CCN(CCC)CC3)cc21 | inactive: 74%
O=C(OCC(=O)N1CCN(c2ccccc2)CC1)c1ccccn1 | inactive: 107%
COc1ccc(C2CC(=O)N(Cc3ccccc3C)c3c2c(C)nn3-c2nc(C)cc(C)n2)c(OC)c1 (centres undefined) | inactive: 80%
Cc1ccccc1-n1c(SCC(=O)Nc2ccc(Cl)cc2Cl)nc(O)cc1=O | inactive: 64%
CC(C)(C)c1ccc(-c2nc(SCCOc3ccc(Cl)cc3)n3[nH]c(=O)cc3n2)cc1 | inactive: 118%

SMILES | survival
COc1ccc(NC(=O)CSC2=Nc3ccccc3C3=NC(CC(=O)NCc4ccccc4OC)C(=O)N23)cc1Cl (centres undefined) | inactive: 74%
COc1ccc(-c2nc3c4ccccc4n(CC(=O)Nc4ccc(C(C)C)cc4)c(=O)n3n2)cc1 | inactive: 68%
CCc1sc(Nc2cccc(C)c2)nc1-c1cc2cccc(OC)c2oc1=O | inactive: 67%
Cc1ccc(S(=O)(=O)N2CCc3cc(C(=O)N(C)Cc4ccccc4)ccc32)cc1 | inactive: 84%
CC(=O)N1CCc2c(sc3c2c(=O)n(-c2ccc(F)cc2)c(=O)n3Cc2cc(C)ccc2C)C1 | inactive: 94%
Cc1cccc(N(C)S(=O)(=O)c2ccc(-c3cc(C)no3)s2)c1 | inactive: 133%
CC(C)OC(=O)c1cc2c(ccn2C)n1CCC#N | inactive: 111%
COc1ccc(S(=O)(=O)c2c(O)c(C)cc(NS(=O)(=O)c3ccc(Cl)cc3)c2C(C)C)cc1 | inactive: 79%
COc1ccc(-c2noc(-c3ccc(N4CCN(C)CC4)c([N+](=O)[O-])c3)n2)cc1 | inactive: 63%
CC(C)(C)c1cc(-c2ccccc2)n[nH]1 | inactive: 132%
COc1cccc(-n2c(=O)c3c(C)c(C(=O)N(C)C)sc3n(Cc3cccc(C)c3)c2=O)c1 | active: 10%
COc1cc(C(=O)N2CCN(CCc3ccncc3)CC2)cc(OC)c1OC | inactive: 86%
O=C(CC(=O)NN=C1CCCC1)NCc1ccccc1 | inactive: 108%
Cc1nc2ccccc2n1C(C)c1ccccc1 (centres undefined) | inactive: 111%
COc1ccccc1-n1nc(-c2ccccc2)c2cnc3c(F)cc(F)cc3c21 | inactive: 119%
COc1ccc(C(CNC(=O)COc2cc(C)cc(C)c2)N2CCCCC2)cc1 (centres undefined) | inactive: 84%
COc1ccc(-c2nc(C)c(CCNC(=O)C(=O)Nc3ccccc3F)s2)cc1 | inactive: 111%
Cc1ccc(NC(=O)Cn2c(=O)n(CC3CCC(C(=O)NC(C)C)CC3)c(=O)c3sccc32)cc1 (centres undefined) | inactive: 71%
CCN1CCN(CCC(=O)Nc2ccc(F)cc2)CC1 | inactive: 105%
COc1ccc(CCN2CCC(CNC(=O)c3cnn(-c4ccc(C)cc4)c3C3CCN(C(=O)OC(C)(C)C)CC3)CC2)cc1 | inactive: 140%
